Measured values: PubChem BioAssay AID588689 (Southern Research Specialized Biocontainment Screening …, 2011)
Out of some 340,000 compounds screened, about 1,000 (0.29%) were called active. The shares of active, inactive and inconclusive entries below differ from those in the screen. No stated cut-off is given here; in the data, inconclusive means inhibition above about 29% without an active follow-up result; inactive means below that.

What follows are compounds tested against Genome polyprotein (Dengue virus type 2 (strain 16681-PDK53)) (UniProt P29991) (assay: Dengue-2 NS5 methyltransferase inhibitors, primary screen, biochemical, confirmation dose response (AID 588689)). Details: Dengue-2 NS5 methyltransferase capping enzyme assay, at 25 µM, hits give high values.
`O=C(CSc1ccc(F)cc1)Nc1ccc(N2CCOCC2)c(Cl)c1` was tested, and the inhibition was inactive: -4.54%. `CCOC(=O)C1=C(C)NC(=O)C(C(N)=O)C12CCCC2` (stereo not given) was tested, and the inhibition was inconclusive: 48%. In the case of `C=CCn1c(C)c(/C=C/c2cc[n+](C)cc2)c2ccccc21`, the inhibition was inconclusive: 70.6%. `COc1ccc(-n2nc3cc(N)c(Br)cc3n2)cc1` was tested, and the inhibition was inactive: 2.38%. For `CCOc1ccc(/C=C/C(=O)Nc2ccc(OC)cc2[N+](=O)[O-])cc1`, the inhibition was inconclusive: 37.2%. With `O=C(O)c1cc(NCc2c(F)cccc2Cl)ccc1N1CCOCC1` the inhibition was inactive: -2.05%. In the case of `Cc1cc(C)c(NC(=O)CN2C(=O)NC3(CCCCC3)C2=O)c(C)c1`, the inhibition was inactive: -3.21%. In the case of `COc1ccc2cc(/C=N/NC(=O)CSCc3ccc([N+](=O)[O-])cc3)c(Cl)nc2c1`, the inhibition was inactive: 4.46%. `Cn1c(N)c(N=Cc2ccccc2)c(=O)n(C)c1=O` was tested, and the inhibition was inconclusive: 89.6%. For `O=c1/c(=C\c2ccc(O)cc2)sc2nc(-c3ccccc3)c(-c3ccccc3)n12`, the inhibition was inconclusive: 60.7%. With `CC(=O)c1c(C)oc2c1cc(NS(=O)(=O)c1ccc(C(=O)O)cc1)c1ccccc12` the inhibition was inactive: 15.7%. With `COc1ccc(-c2cc(-c3ccco3)[nH]c(=O)c2C#N)cc1OC` the inhibition was inconclusive: 41.1%. `Cc1ccc(CN2C(=O)N/C(=C/c3ccc(-c4ccc(C(=O)O)cc4)o3)C2=O)cc1` was tested, and the inhibition was inactive: 14.9%. With `COC(=O)c1ccc(CS(=O)(=O)c2ccc(C)cc2)cc1` the inhibition was inconclusive: 103%. In the case of `CCOC(=O)C1CCN(C(=O)c2ccc3c(c2)NC(=O)/C(=C\c2ccc(C)cc2)S3)CC1`, the inhibition was inconclusive: 59.5%. For `CCOc1ccc(C2C=C(c3ccccc3)Nc3nnnn32)cc1` (stereo not given), the inhibition was inconclusive: 42.7%. With `Cc1cc(O)c(C=O)c2c1C(=O)Oc1c(CO)c(O)c3c(c1O2)C(O)OC3=O` (stereo not given) the inhibition was inconclusive: 89%. In the case of `CC1CN(C(=O)c2nn(C)cc2[N+](=O)[O-])CC(C)O1` (stereo not given), the inhibition was inactive: -1.37%. For `Cc1[nH]c2ccccc2c1C1C(c2ccccc2)=NN=C(C(C)C)N1O` (stereo not given), the inhibition was inactive: -11.8%. For `CS(=O)(=O)c1cc([N+](=O)[O-])c(Sc2nc3ccccc3[nH]2)c([N+](=O)[O-])c1`, the inhibition was inconclusive: 46%. `C=CCn1c(SCC(=O)NC2CCCC2)nnc1-c1ccncc1` was tested, and the inhibition was inactive: -3.89%. In the case of `CCOC(=O)C1=C(CSc2nc3c(cc2C#N)CN(C)CC3)OC(N)=C(C#N)C1c1ccccc1` (stereo not given), the inhibition was inconclusive: 37.6%. `CCN(C(=O)CCN1C(=O)c2ccccc2S1(=O)=O)c1ccccc1` was tested, and the inhibition was inactive: -2.22%. With `O=C1c2cccnc2-c2ncccc21` the inhibition was inactive: 5.95%. In the case of `O=C1c2cccc3c([N+](=O)[O-])ccc(c23)C(=O)N1Cc1cccnc1`, the inhibition was inconclusive: 41.6%. `Cc1ccnc(N/C=C(\C#N)c2nc(-c3cccc(Br)c3)cs2)c1` was tested, and the inhibition was inconclusive: 137%. In the case of `CS(=O)(=O)Nc1nc2n(n1)C(c1ccccc1)C=C(c1ccc(Br)cc1)N2` (stereo not given), the inhibition was inconclusive: 65.6%. `Cc1cc(C)c2[nH]c(=O)c(C(c3nnnn3Cc3ccc4c(c3)OCO4)N3CCCCC3)cc2c1` (stereo not given) was tested, and the inhibition was inactive: 9.03%. With `Cn1c(N)c(-c2ccccc2)c2ccc([N+](=O)[O-])cc2c1=O` the inhibition was inconclusive: 166%. For `CCCCOC(=O)C(C#N)c1nc2ccccc2nc1N1CCOCC1` (stereo not given), the inhibition was inconclusive: 125%. With `CCOC(=O)[C@H](CCc1ccccc1)N[C@@H](C)C(=O)N1C(C(=O)O)C[C@@H]2CCC[C@@H]21` (stereo not given in full) the inhibition was inconclusive: 153%. For `Cc1ccc(/C=C/C(=O)c2ccc(N3CCOCC3)cc2)s1`, the inhibition was inconclusive: 42.4%. For `Cc1cc2cc(CNC(=O)COc3ccccc3)ccc2n1C`, the inhibition was inconclusive: 56.7%. `Cc1ccc(-c2csc(NC(=O)Cn3[nH]c(=O)c4ccccc4c3=O)n2)cc1` was tested, and the inhibition was inconclusive: 41.6%. With `O=C(O)c1cccc(N2C(=O)c3ccc4c5c(ccc(c35)C2=O)C(=O)N(c2cccc(C(=O)O)c2)C4=O)c1` the inhibition was inactive: 16.5%. `CN(N=Cc1ccc([N+](=O)[O-])cc1)c1ccccn1` was tested, and the inhibition was inconclusive: 61.5%. With `N=c1c(C(=O)NC2CCCC2)cc2c(=O)n3ccccc3nc2n1C1CCCCC1` the inhibition was inconclusive: 56.2%. `C=CCOn1c(=O)c(-c2cc3ccccc3o2)[n+]([O-])c2ccccc21` was tested, and the inhibition was inconclusive: 102%. With `CCn1c(=N)c(S(=O)(=O)c2ccc(F)cc2)cc2c(=O)n3ccccc3nc21` the inhibition was inconclusive: 36.1%. For `O=C1c2cccc3c(N4CCCCC4)ccc(c23)C(=O)N1c1cccc(O)c1`, the inhibition was inconclusive: 197%. With `CC1=NN(c2ccc(Cl)cc2)C(=O)C1C(c1cccc(O)c1)c1c(C)[nH]n(-c2ccc(Cl)cc2)c1=O` (stereo not given) the inhibition was inconclusive: 28.7%. `CCOc1ccc(C2OC34CCCCC3C(C#N)(C#N)C2(C#N)C(=N)O4)cc1OC` (stereo not given) was tested, and the inhibition was inconclusive: 85.5%. In the case of `COc1ccc2nc(C)cc(SCC(NC(C)=O)C(=O)OC(C)C)c2c1` (stereo not given), the inhibition was inactive: 0.78%. With `CN(C1CCCCC1)S(=O)(=O)c1ccc(S(=O)(=O)N2CCN(C(=O)c3ccccc3F)CC2)cc1` the inhibition was inactive: -5.65%. `O=C(Nc1ccccc1N1CCCCC1)C1CC(=O)N(c2ccccc2F)C1` (stereo not given) was tested, and the inhibition was inactive: -1.45%. For `CCN(CC)C(=O)CSc1nnc2nnc3cc(Cl)ccc3n12`, the inhibition was inconclusive: 45.9%. In the case of `COC(=O)c1ccnc(SCC(=O)c2ccccc2)c1`, the inhibition was inactive: -7.25%. For `O=C1c2cccc3c(N4CCCCC4)ccc(c23)C(=O)N1c1ccccc1O`, the inhibition was inconclusive: 193%. In the case of `Cc1cc(NC(=O)CSCc2nc(-c3cccc(F)c3)oc2C)no1`, the inhibition was inactive: 4.17%. `O=[N+]([O-])c1c(Nc2ccc(O)cc2)cc(N2CCOCC2)c2nonc12` was tested, and the inhibition was inactive: 9.17%. For `COc1cc(C2C3CN(C)CC=C3C(C#N)=C(N)C2(C#N)C#N)ccc1OC(C)C` (stereo not given), the inhibition was inconclusive: 41.3%. With `CC(C)CC1C(C#N)=C(N)SC(N)=C1C#N` the inhibition was inconclusive: 139%. `COCCCNC(=O)C(C#N)c1nc2ccccc2nc1N1CCN(Cc2ccccc2)CC1` (stereo not given) was tested, and the inhibition was inconclusive: 73%. For `O=C(O)CN1C(=O)/C(=C\c2cn(-c3ccccc3)nc2-c2ccccc2)SC1=S`, the inhibition was inconclusive: 44%. For `Cc1cc2cc(CNC(=O)c3cccs3)ccc2n1C`, the inhibition was inconclusive: 110%. With `COC/C=C/C1=CC2=CC(=O)C(C)(OC(=O)c3cnc4ccccc4n3)C(=O)C2=CN1CC(C)C` (stereo not given) the inhibition was inconclusive: 33.5%. With `Cc1cc(=O)[nH]c(-c2cccs2)n1` the inhibition was inactive: 10.8%. For `CC1=NN2C(=N)/C(=C\c3ccc(SCc4ccccc4)o3)C(=O)N=C2S1`, the inhibition was inconclusive: 31.3%. In the case of `Cc1ncc(CN2CCCC(C(=O)Nc3ccc(-c4ccco4)cc3)C2)cn1` (stereo not given), the inhibition was inactive: -25.6%. For `CCN(c1ccc(N=Cc2c(O)n(Cc3ccc(OC)cc3)c(=O)c3ccccc23)cc1)C(C)C`, the inhibition was inconclusive: 153%. `CCOC(=O)N1CCC(NC(=O)CSCc2nc(-c3ccccc3Cl)oc2C)CC1` was tested, and the inhibition was inactive: -1.81%. In the case of `COc1cccc(C(=O)Nn2c(-c3cccs3)nc3ccccc3c2=O)c1OC`, the inhibition was inactive: -3.56%. For `CCOc1ccc2c(c1)S/C(=C\c1cccs1)C(=O)N2`, the inhibition was inconclusive: 111%. `COc1ccc(-n2c(O)c(/C=N/NS(=O)(=O)c3ccc(C)c([N+](=O)[O-])c3)c3ccccc3c2=O)cc1OC` was tested, and the inhibition was inconclusive: 178%. In the case of `CN1CC=C2C(C#N)=C(N)C(C#N)(C#N)C(c3ccsc3)C2C1` (stereo not given), the inhibition was inconclusive: 91%. With `CC1/C(=N/O)CC(c2ccccc2)NC1c1ccccc1` (stereo not given) the inhibition was inactive: 3.42%. With `O=C1C2CCCN2C(=S)N1c1ccccc1` (stereo not given) the inhibition was inactive: -3.27%. `CN(Cc1ccccc1F)C(=O)C1CCCN(C(=O)c2ccc(Cl)cc2)C1` (stereo not given) was tested, and the inhibition was inactive: 3.62%. In the case of `Cc1ccc2cc3c(N)c4c(C)ccc(C)c4nc3nc2c1`, the inhibition was inconclusive: 78.7%. With `COc1ccc2nc3ccccc3[n+]([O-])c2c1` the inhibition was inconclusive: 139%. For `COc1cccc(NCc2ccc([N+](=O)[O-])s2)c1`, the inhibition was inactive: -8.01%. For `Cc1nc2ccccn2c(=O)c1CCN1CCC(C(=O)c2ccc(F)cc2)CC1`, the inhibition was inconclusive: 73.7%. `O=C(COc1ccc(Cl)cc1Cl)NN1C(=O)/C(=C\c2ccc(Cl)cc2)SC1=S` was tested, and the inhibition was inactive: 0%. `N#C/C(=C\c1ccc(-c2nc3ccccc3s2)o1)C(N)=O` was tested, and the inhibition was inconclusive: 45.4%. `CS(=O)(=O)c1nsc2nc(=O)c(/C=C3\C=Nc4ccccc43)c(N)n12` was tested, and the inhibition was inconclusive: 40.3%. In the case of `CC1(C)CC(=O)C2=C(C1)OC(N)=C(C#N)[C@@H]2c1ccccc1[N+](=O)[O-]`, the inhibition was inconclusive: 87.1%. In the case of `CCCCn1c(N)c(NCc2ccccc2OC)c(=O)[nH]c1=O`, the inhibition was inconclusive: 54.7%. With `CC1=CC2=NC(=O)/C(=C/c3coc4ccc(Cl)cc4c3=O)C(=N)N2O1` the inhibition was inconclusive: 43.6%. With `CC1(Cc2cn(CCC#N)c3ccccc23)OCCO1` the inhibition was inactive: 6.35%. In the case of `C=CCOc1ccc(C2C(C(=O)c3cccs3)=C(O)C(=O)N2c2nnc(C)s2)cc1` (stereo not given), the inhibition was inconclusive: 41.3%. For `COc1ccc(/C=C2\SC(=S)N(CCCC(=O)Nc3ccccn3)C2=O)cc1OC`, the inhibition was inconclusive: 57.4%. With `O=C(Nc1ccc(C(=O)c2ccc(C(=O)O)c(C(=O)O)c2)cc1)c1ccccc1` the inhibition was inactive: 6.21%. For `Brc1ccc(C2=CC(c3ccco3)n3ncnc3N2)cc1` (stereo not given), the inhibition was inconclusive: 164%. For `CCN(CC)c1ccc2c(-c3ccc(S(=O)(=O)O)cc3S(=O)(=O)[O-])c3ccc(=[N+](CC)CC)cc-3oc2c1`, the inhibition was inconclusive: 170%. With `Cc1ccc2c(c1)c1c(n2C)C(C(N)=O)CCC1` (stereo not given) the inhibition was inconclusive: 30.4%.
